PubChem BioAssay AID2675 (National Center for Advancing Translational Sciences (NCATS), 2010)
Hit rate of the full screen: of about 280,000 compounds, about 100 (0.036%) were called active. This list was built around the results that the source calls inconclusive (neither active nor inactive); the mix of calls is not that of the screen. Calls come from the whole dose curve; as a rule, active = well fitted inhibition curve with a large enough effect in the signal ratio, with a control signal flat (not every such curve was filed as active); inconclusive = small, poorly fitted or top-dose-only effect, or effect the other way, or a change in a side signal; inactive = no such curve, though single readings can be large or run the other way; the % refers to the signal ratio. A potency beside an inconclusive call is a rough fit, not a confirmed value. A note “side channel” means that the fit belongs to a control or component signal, not to the main read-out.

molecular target: Muscleblind-like protein 1 (Homo sapiens) (UniProt Q9NR56); assay: qHTS Assay for Inhibitors of MBNL1-poly(CUG) RNA binding; conditions: TR-FRET MBNL1-His/biotin-(CUG)12 binding, 665/545 ratio; activity change, negative = inhibition: at 57.5 µM (top of the series)
Method in brief: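 MBNL1-His + Biotin-(CUG)12, cpd titration 92 nM–58 uM; Tb anti-His Ab 0.055 ng/ul, SA-XL665 5 nM (final); 60 min RT; ratiometric 665/545 nm, Ex 340 nm; normalized to buffer and full-complex controls.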
% is set by controls: 0 for no effect and ±100 for the full control effect; potency is the fitted concentration of half-maximal effect; tags give direction and shape of the fitted curve or compound fluorescence and quenching.

Chain of UniProt Q9NR56 (Q9NR56 whole entry, looked up): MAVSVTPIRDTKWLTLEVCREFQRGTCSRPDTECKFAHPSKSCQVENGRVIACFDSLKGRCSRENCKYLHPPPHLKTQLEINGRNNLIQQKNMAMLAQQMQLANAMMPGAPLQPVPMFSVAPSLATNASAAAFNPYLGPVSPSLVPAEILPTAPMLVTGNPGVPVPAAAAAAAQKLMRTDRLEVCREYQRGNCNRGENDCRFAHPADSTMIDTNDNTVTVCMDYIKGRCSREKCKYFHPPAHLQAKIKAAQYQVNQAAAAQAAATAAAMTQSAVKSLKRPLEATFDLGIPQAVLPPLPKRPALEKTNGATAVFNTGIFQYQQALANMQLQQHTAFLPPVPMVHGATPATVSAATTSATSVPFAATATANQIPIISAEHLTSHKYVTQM

**Q.** How did the Potency turn out when Cc1ccc(N2C(=O)C(Cl)=C(NCCO)C2=O)c(C)c1 was run?
**A.** inconclusive: 28.2 µM [quencher, side channel, partial curve]

**Q.** How did the Potency turn out when O=C(Nc1ccc2c(c1)OCO2)C1CCN(Cc2cnn(-c3ccccc3)c2-n2cccc2)CC1 was run?
**A.** inconclusive: 3.55 µM [quencher, side channel, single point]

**Q.** How did the Potency turn out when Clc1ccc(OCc2cc(-c3ccccc3)no2)c(Cl)c1 was run?
**A.** inconclusive: 0.891 µM [quencher, side channel, single point]

**Q.** Which Potency does the source give for CC(=O)C(=[N+]=[N-])C(=O)NCc1ccccc1 here?
**A.** inconclusive: 39.8 µM [quencher, side channel, single point]

**Q.** O=C(Nc1ccc(Cl)cn1)c1ccc2nccnc2c1 was tested. Which Potency did it give?
**A.** inconclusive: 1.58 µM [quencher, side channel, partial curve, poor fit]

**Q.** Which Potency does the source give for Cc1ccc(C(=O)CSc2nc3ccccc3c(=O)n2N)o1 here?
**A.** inconclusive: 10 µM [quencher, side channel, partial curve]

**Q.** Which Potency does the source give for NC(=S)NNc1cccc(Cl)c1 here?
**A.** inactive

**Q.** For Cc1ccc(-c2nnc(SCC(=O)N(C)C)nc2-c2ccc(C)cc2)cc1, which Potency is on record?
**A.** inconclusive: 8.91 µM [quencher, side channel, partial curve]

**Q.** Which Potency does the source give for O=C(c1ccccc1F)N1CCN(c2cnn(-c3cccc(Cl)c3)c(=O)c2Cl)CC1 here?
**A.** inconclusive: 17.8 µM [quencher, side channel, partial curve]

**Q.** For CN1CCN(C(=O)CCN2C(=O)/C(=C\c3ccccc3F)SC2=S)CC1, which Potency is on record?
**A.** inconclusive: 10 µM [quencher, side channel, partial curve]

**Q.** How did the Potency turn out when Cc1[nH]nc(Nc2ccc(C(C)C)cc2)c1[N+](=O)[O-] was run?
**A.** inconclusive: 12.6 µM [quencher, side channel, partial curve]

**Q.** With C/C(=N\NC(N)=S)C1(C)CCCCC1 as the molecule, how does the activity change, negative = inhibition read?
**A.** inactive: 0.432% [at 11.5 µM]

**Q.** How did the Potency turn out when Cn1cccc1C(=O)C(=O)Nc1ccccc1 was run?
**A.** inactive

**Q.** With Nc1c(C(=O)NCCN2CCOCC2)c2nc3ccccc3nc2n1CCc1ccccc1 as the molecule, how does the Potency read?
**A.** inconclusive: 14.1 µM [quencher, side channel, partial curve]

**Q.** For Cn1cc(CN2CCN(c3ncccn3)CC2)c(-c2cccc(Cl)c2)n1, which Potency is on record?
**A.** inactive

**Q.** Which Potency does the source give for O=S(=O)(c1ccc(Cl)cc1)N1CCN=C1SCc1cccc(Cl)c1 here?
**A.** inactive

**Q.** Cc1cc(C)c[n+](-c2nc3ccccc3nc2[N-]S(=O)(=O)c2ccc(Br)s2)c1 was tested. Which Potency did it give?
**A.** inconclusive: 15.8 µM [quencher, side channel, partial curve]

**Q.** Which Potency does the source give for CNc1ccccc(-c2ccc3cc4c(cc3n2)OCO4)c1=O here?
**A.** inconclusive: 12.6 µM [quencher, side channel, partial curve]

**Q.** With Nc1ccc2ncccc2c1 as the molecule, how does the Potency read?
**A.** inconclusive: 17.8 µM [quencher, side channel, partial curve]

**Q.** How did the Potency turn out when CCOc1ccc(-n2c(=S)sc3c(=O)n(-c4ccccc4)c(SCC(=O)O)nc32)cc1 was run?
**A.** inconclusive: 15.8 µM [quencher, side channel, partial curve]

**Q.** For C=CCN(C(=O)Cn1ncc2c1-c1cc(C)ccc1OC2)c1ccccc1, which Potency is on record?
**A.** inconclusive: 0.562 µM [quencher, side channel, single point]

**Q.** With CCOC(OCC)c1cn(Cc2ccc3c(c2)C(=O)c2ccccc2C3=O)nn1 as the molecule, how does the Potency read?
**A.** inconclusive: 7.94 µM [quencher, side channel, partial curve]

**Q.** How did the Potency turn out when CC(=O)C1=C(C)Nc2ncnn2C1c1ccc(Br)cc1 (centres undefined) was run?
**A.** inconclusive: 28.2 µM [fluorescent, side channel, single point]

**Q.** Which Potency does the source give for c1ccc(CCCc2nc(-c3ccccn3)no2)cc1 here?
**A.** inactive

**Q.** How did the Potency turn out when CC(C)CSc1oc(-c2ccco2)nc1S(=O)(=O)c1ccccc1 was run?
**A.** inactive

**Q.** With COc1cc(C(=O)NCC2CCCO2)cc(OC)c1OC (centres undefined) as the molecule, how does the Potency read?
**A.** inconclusive: 8.91 µM [quencher, side channel, single point]

**Q.** For COc1ccccc1NC(=O)CCC(=O)OCc1ccc([N+](=O)[O-])cc1, which Potency is on record?
**A.** inconclusive: 25.1 µM [quencher, side channel, single point]

**Q.** How did the Potency turn out when CCCC(=Nc1ccc(N)cc1)C1=C(O)C(C(=O)OC)C(C)(C)CC1=O (centres undefined) was run?
**A.** inconclusive: 15.8 µM [quencher, side channel, partial curve]

**Q.** How did the Potency turn out when CC1CCc2c(sc3nc(C(C)(C)C)nc(N4CCN(C(=O)CCl)CC4)c23)C1 (centres undefined) was run?
**A.** inactive

**Q.** For COc1ccc(-c2ccc(CCC(=O)O)n2-c2ccccc2OC)cc1, which Potency is on record?
**A.** inactive

**Q.** CC(C)N1CCc2c(sc(NC(=O)c3cc(-c4cccs4)nc4ccccc34)c2C(N)=O)C1 was tested. Which Potency did it give?
**A.** inconclusive: 12.6 µM [quencher, side channel, partial curve, poor fit]

**Q.** For COC(=O)c1cccnc1-n1c(=O)c2cccnc2n(Cc2ccc([N+](=O)[O-])cc2)c1=O, which Potency is on record?
**A.** inconclusive: 28.2 µM [quencher, side channel, partial curve]

**Q.** Which Potency does the source give for COc1ccc(C2=NS(=O)(=O)N(C)C(C(=O)NCc3ccc4c(c3)OCO4)=C2)cc1 here?
**A.** inconclusive: 28.2 µM [quencher, side channel, partial curve]

**Q.** Which Potency does the source give for C#CCOC(=O)/C(=C/C=C/c1ccccc1)NC(=O)c1ccccc1 here?
**A.** inconclusive: 0.631 µM [quencher, side channel, full curve]

**Q.** COc1ccc(NC(=O)C(=O)NCC(=O)Nc2cc(OC)ccc2OC)cc1 was tested. Which Potency did it give?
**A.** inactive

**Q.** How did the Potency turn out when COc1ccc(NC(=O)N2CCC(c3nc(-c4cccs4)no3)CC2)cc1 was run?
**A.** inconclusive: 7.94 µM [quencher, side channel, single point]

**Q.** With C[n+]1cccc(/C=N/Nc2nc(Cl)c(C#N)c(Cl)c2Cl)c1 as the molecule, how does the Potency read?
**A.** inconclusive: 14.1 µM [quencher, side channel, partial curve]

**Q.** How did the Potency turn out when COc1ccc(/C=N\NC(=O)c2cc(O)c(O)c(O)c2)cc1CN1CCN(c2ccc(F)cc2)CC1 was run?
**A.** inconclusive: 79.4 µM [inhibitor, single point]

**Q.** CCCc1cc(C(=O)Nc2sc(C)c(C)c2C(=O)OCC)no1 was tested. Which Potency did it give?
**A.** inactive
